The record followed here is article PMC4336329 (PLoS ONE, 2015).

About 14,000 (4.5%) of roughly 310,000 compounds showed an effect of 50% or more. Effects have a minus sign here. The list shows a part of the results.
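Note: peak tail current of the secondary pulse compared with the same well before compound.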

The target of the test is human ether-à-go-go-related gene (hERG) potassium channel (human, UniProt Q12809). Description: primary screen, population patch clamp on CHO cells stably expressing hERG.
Chain of human ether-à-go-go-related gene (hERG) potassium channel (Q12809 whole entry, looked up): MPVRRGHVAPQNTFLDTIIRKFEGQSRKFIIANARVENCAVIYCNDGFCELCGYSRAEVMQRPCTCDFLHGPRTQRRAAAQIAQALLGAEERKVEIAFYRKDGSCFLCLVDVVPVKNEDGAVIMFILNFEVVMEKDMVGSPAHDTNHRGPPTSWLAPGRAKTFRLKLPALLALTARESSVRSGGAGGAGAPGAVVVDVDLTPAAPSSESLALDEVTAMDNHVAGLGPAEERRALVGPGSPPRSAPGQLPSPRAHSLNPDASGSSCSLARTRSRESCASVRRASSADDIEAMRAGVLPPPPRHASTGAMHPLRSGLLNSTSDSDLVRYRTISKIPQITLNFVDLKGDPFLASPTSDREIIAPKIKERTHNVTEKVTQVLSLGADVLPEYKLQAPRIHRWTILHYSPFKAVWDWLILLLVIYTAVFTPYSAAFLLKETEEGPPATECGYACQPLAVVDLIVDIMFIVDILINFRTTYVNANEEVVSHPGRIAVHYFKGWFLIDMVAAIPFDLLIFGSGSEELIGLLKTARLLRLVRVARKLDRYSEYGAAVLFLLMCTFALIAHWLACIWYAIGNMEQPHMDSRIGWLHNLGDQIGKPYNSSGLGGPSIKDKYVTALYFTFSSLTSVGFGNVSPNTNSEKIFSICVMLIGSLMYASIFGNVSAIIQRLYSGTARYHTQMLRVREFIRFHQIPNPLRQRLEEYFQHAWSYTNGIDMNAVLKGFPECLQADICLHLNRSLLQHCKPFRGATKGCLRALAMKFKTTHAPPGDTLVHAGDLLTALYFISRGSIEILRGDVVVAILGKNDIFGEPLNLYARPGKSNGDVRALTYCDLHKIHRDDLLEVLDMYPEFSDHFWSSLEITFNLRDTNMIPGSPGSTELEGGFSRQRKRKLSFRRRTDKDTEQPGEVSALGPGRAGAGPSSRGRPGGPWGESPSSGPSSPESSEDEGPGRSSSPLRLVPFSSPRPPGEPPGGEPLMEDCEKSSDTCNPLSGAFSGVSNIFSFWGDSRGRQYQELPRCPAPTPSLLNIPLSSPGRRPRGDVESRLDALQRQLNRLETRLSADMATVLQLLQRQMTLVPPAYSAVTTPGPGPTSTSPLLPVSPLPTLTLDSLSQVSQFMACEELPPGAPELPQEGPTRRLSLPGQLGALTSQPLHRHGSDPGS
For `COC(=O)c1ccc(NC(=O)C2CCCCC2C(=O)O)cc1` (centres unmarked), the “hERG current change (%, negative = inhibition) at 10uM” value amounted to 21.9%.
As for `COc1cc2nc(N3CCN(c4cc(C)ccc4C)CC3)nc(N)c2cc1OC.Cl`, the “hERG current change (%, negative = inhibition) at 10uM” value is listed as -35.6%.
Turning to `CCCCCCn1c(N(CC)CC)nc2c1c(=O)[nH]c(=O)n2C`, the “hERG current change (%, negative = inhibition) at 10uM” value was -63.6%.
For `O=C1CC(N2CCN(c3cccc(C(F)(F)F)c3)CC2)C(=O)N1c1ccccc1F` (centres unmarked), the “hERG current change (%, negative = inhibition) at 10uM” value is -18%.
Take `COc1ccc(-n2cnc3cc(NS(=O)(=O)c4ccccc4)ccc32)cc1`: the “hERG current change (%, negative = inhibition) at 10uM” value turned out to be 7.83%.
As to `CCOC(=O)/C(C#N)=C/c1cc2cc(C)c(C)cc2nc1Cl`, the “hERG current change (%, negative = inhibition) at 10uM” value came out at 7.18%.
For the molecule `COc1cccc(CNC(=O)COc2ccc(C(=O)c3ccccc3)cc2)c1`, the “hERG current change (%, negative = inhibition) at 10uM” value is on record as -11.7%.
For `CC(=O)c1sc(C(=O)O)c(-c2ccco2)c1-c1ccco1`, the “hERG current change (%, negative = inhibition) at 10uM” value is on record as 10.8%.
The result for `COCc1c(C(=O)NCCOc2ccc(Cl)cc2)oc2ccccc12` reads -6.33%; that for `Cc1cccc(OCC(=O)OCC(=O)c2c(N)n(C)c(=O)n(C)c2=O)c1C`, -1.84%; that for `O=C(NCc1cccs1)c1ccc(N2CCCC2=O)cc1`, 5.44%.
Turning to `O=C(O)Cc1ccc2sc(-c3ccccc3)nc2c1`, the “hERG current change (%, negative = inhibition) at 10uM” value turned out to be 17.1%.
As for `CC(C)CCC(C(=O)[O-])C(C)CC(=O)NNC(=O)c1ccco1.[Na+]` (centres unmarked), the “hERG current change (%, negative = inhibition) at 10uM” value was 5.43%.
As for `Cc1ccc(C(=O)c2c(NC(=O)CSc3nnc(N)s3)sc3c2CCCC3)cc1`, the “hERG current change (%, negative = inhibition) at 10uM” value stood at 1.21%.
The result for `N#Cc1ccc2c(c1)nnn2-c1ccccc1` reads 1.85%.
As for `O=C(COC(=O)C1(c2ccc(Cl)cc2)CCCC1)Nc1ncc(C(F)(F)F)cc1Cl`, the “hERG current change (%, negative = inhibition) at 10uM” value is -11.9%.
As to `O=C(NN1CCOCC1)c1cccc(F)c1`, the “hERG current change (%, negative = inhibition) at 10uM” value is on record as 12.8%.
In the case of `COCCN(C(=O)CSc1nnc(-c2ccccc2F)n1C)c1c(N)n(Cc2ccccc2)c(=O)[nH]c1=O`, the “hERG current change (%, negative = inhibition) at 10uM” value was 12.1%.
Then `COc1ccc(NC(=O)c2ccccc2Oc2ccccc2)cc1`, with 2.68%.
Consider `Cc1cccc(C)c1OCC(O)CN1CCC(CN2C(=O)c3cccc4cccc(c34)C2=O)CC1.Cl` (centres unmarked), for which the “hERG current change (%, negative = inhibition) at 10uM” value was -76.2%.
For the molecule `O=C(NCCCn1ccnc1)Nc1ccc(Cl)cc1Cl`, the “hERG current change (%, negative = inhibition) at 10uM” value is -13.9%.
Regarding `COc1ccc(S(=O)(=O)Nc2ccccc2C(=O)NCc2cccnc2)cc1C`, the “hERG current change (%, negative = inhibition) at 10uM” value is given as -24.8%.
As for `COC(=O)C1=C(C)N(Cc2ccco2)C(=O)N[C@@H]1c1cccc(C(F)(F)F)c1`, the “hERG current change (%, negative = inhibition) at 10uM” value was 0.604%.
In the case of `Cc1cc2nc3c(=O)[nH]c(=S)[nH]c3nc2cc1NC(=O)C(F)(F)F`, the “hERG current change (%, negative = inhibition) at 10uM” value is reported as 30.4%.
Take `O=C(/C=C/c1ccccc1F)N1CCN(c2ccccn2)CC1`: the “hERG current change (%, negative = inhibition) at 10uM” value is recorded as -18.7%.
Regarding `O=C(COc1cccnc1[N+](=O)[O-])c1ccc(Cl)s1`, the “hERG current change (%, negative = inhibition) at 10uM” value turned out to be 20.9%.
With `COc1ccccc1CCC(=O)Nc1ccc(C)cc1Cl`, the “hERG current change (%, negative = inhibition) at 10uM” value is 11.4%.
Turning to `CCC1(c2ccccc2)NC(=O)N(CC(=O)c2ccc3c(c2)OCO3)C1=O` (centres unmarked), the “hERG current change (%, negative = inhibition) at 10uM” value was -4.15%.
For the molecule `CN1CCc2c(OCC(=O)N3CCCc4ccccc43)cccc2C1=O`, the “hERG current change (%, negative = inhibition) at 10uM” value worked out at 5.9%.
Take `C[n+]1c(-c2ccccc2)cc(-c2ccc(O)cc2)cc1-c1ccccc1.[O-][Cl+3]([O-])([O-])[O-]`: the “hERG current change (%, negative = inhibition) at 10uM” value is -61.4%.
Consider `CCOC(=O)C1=C(COC(=O)c2ccccc2[N+](=O)[O-])NC(=O)NC1C` (centres unmarked), for which the “hERG current change (%, negative = inhibition) at 10uM” value amounted to 22.3%.
For `CN(C)c1nc(C#N)nc(N(C)C)n1`, the “hERG current change (%, negative = inhibition) at 10uM” value amounted to 18%.
Regarding `Cc1ccc(N2CCCCn3c2nc2c3c(=O)n(CC(=O)O)c(=O)n2C)cc1`, the “hERG current change (%, negative = inhibition) at 10uM” value came to 16.7%.
In the case of `NC(=O)c1sc2nc3c(c(-c4ccccc4)c2c1N)CCC3`, the “hERG current change (%, negative = inhibition) at 10uM” value is -18.4%.
In the case of `Cc1ccc(S(=O)(=O)NCCC(=O)OCC(=O)N(Cc2ccccc2)C(C)(C)C)cc1`, the “hERG current change (%, negative = inhibition) at 10uM” value is recorded as 1.63%.
In the case of `Cc1cccc(C)c1NC(=O)CN1C(=O)N(C)Cc2ccccc21`, the “hERG current change (%, negative = inhibition) at 10uM” value is 20.1%.
The result for `N#Cc1cccc(C(c2nnnn2CCc2ccccc2)N2CCN(C3CCCCC3)CC2)c1` (centres unmarked) reads -61%; that for `COc1ccc(C)cc1N(C(=O)CNC(=O)c1ccco1)C(C(=O)NC1CCCC1)c1cccnc1` (centres unmarked), 26.3%; that for `CC(C)Sc1snnc1-c1ccccc1`, 14.3%.
On to `COc1ccc(/C=N/NC(=O)c2ccccc2)cc1OS(=O)(=O)c1ccccc1`, for which the “hERG current change (%, negative = inhibition) at 10uM” value was -3.53%.
In the case of `COc1cccc(C2(O)CCN(C(=O)C3CC3)CC2)c1`, the “hERG current change (%, negative = inhibition) at 10uM” value is listed as 13%.
As to `COc1cccc(N2CC(C(=O)Nc3nnc(SCC(=O)N4CCCC4)s3)CC2=O)c1` (centres unmarked), the “hERG current change (%, negative = inhibition) at 10uM” value was 11%.
Consider `O=C(C1=C(O)C(=O)N(CC2CCCO2)C1c1ccc(Cl)cc1)c1ccco1` (centres unmarked), for which the “hERG current change (%, negative = inhibition) at 10uM” value came to 12.3%.
The result for `CC(C)(C)OC(=O)N1CCOCCOCCN(C(=O)OC(C)(C)C)CCOCCOCC1` reads 7%; that for `Cc1cc(=O)oc2cc(OCc3ccc(C(=O)OCC(=O)Nc4ccccc4OC(F)F)cc3)ccc12`, 8.79%.
On to `O=S(=O)(NCCc1csc(-c2cccnc2)n1)c1ccc(F)cc1`, for which the “hERG current change (%, negative = inhibition) at 10uM” value is -9.39%.
For the molecule `O=C(Nc1ccc(C(=O)N2CCOCC2)cc1)c1cccc(Br)c1`, the “hERG current change (%, negative = inhibition) at 10uM” value was 3.11%.
Turning to `CC1CC(=O)Nc2ccccc2N1C(=O)CSc1nnnn1C(C)C` (centres unmarked), the “hERG current change (%, negative = inhibition) at 10uM” value is given as 0.74%.
As to `C=C(C(=O)c1ccccc1)C(C(=C)C(=O)c1ccccc1)c1ccc(OC)cc1`, the “hERG current change (%, negative = inhibition) at 10uM” value came to 0.181%.
Regarding `COc1ccc(C(=S)N(C)C)cc1OC`, the “hERG current change (%, negative = inhibition) at 10uM” value worked out at 8.27%.
On to `O=[N+]([O-])c1ccc(COc2ncnc3ccccc23)cc1`, for which the “hERG current change (%, negative = inhibition) at 10uM” value was -45.3%.
The result for `C=C(C)CSc1nc2c(c(=O)[nH]c(=O)n2C)n1CCC(C)C` reads -15.9%; that for `O=C(Nc1nccs1)C(=O)c1c[nH]c2ccccc12`, 24.5%; that for `COc1cc2cc(-c3ccc(OC)c(OC)c3C)nc(N)c2cc1OC`, -34%.
As to `CCOC(=O)C1CCCN(Cc2c(C(=O)N3CCCCC3)nc3c(C)cccn23)C1` (centres unmarked), the “hERG current change (%, negative = inhibition) at 10uM” value is listed as -4.3%.
Turning to `CN(C)Cc1c(O)ccc2oc(Cc3ccccc3)cc12`, the “hERG current change (%, negative = inhibition) at 10uM” value is -38%.
